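Step 1: Grow cells in 96-well plates. Step 2: Expose to compound for 48 hours at 5 concentrations. Step 3: Interpolate endpoints linearly; if unreached, use highest concentration. GI50 is the concentration that inhibits growth by half. TGI marks complete inhibition of growth.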
Each compound was assayed on NCI-H322M lung (assay: NCI tumour cell line growth inhibition, 48 h).

Point of comparison: `CS(=O)c1nccc(-c2c(-c3ccc(F)c(OCc4ccc(F)cc4)c3)nc3sccn23)n1` (stereo unspecified), GI50 15800 nM. Against it:
- NC(=O)c1c(NC(=O)c2ccc(C3CCCCC3)cc2)sc2c1CCC(=O)C2 — 5.3-fold lower, 2980 nM
- COc1ccc(CCOc2cc3c(cc2OC)CCN(C(=O)NCc2cocn2)C3c2ccc(C)cc2C)cc1 (stereo unspecified) — 5.7-fold lower, 2770 nM

Point of comparison: `CS(=O)c1nccc(-c2c(-c3ccc(F)c(OCc4ccc(F)cc4)c3)nc3sccn23)n1` (stereo unspecified), TGI 35.9 µM. Against it:
- NC(=O)c1c(NC(=O)c2ccc(C3CCCCC3)cc2)sc2c1CCC(=O)C2 — higher, > 100 µM
- COc1ccc(CCOc2cc3c(cc2OC)CCN(C(=O)NCc2cocn2)C3c2ccc(C)cc2C)cc1 (stereo unspecified) — higher, > 100 µM

From PubChem BioAssay (NCI)
